Results from PubChem BioAssay AID743279 (National Center for Advancing Translational Sciences (NCATS), 2014).
Out of some 360,000 compounds screened, about 17,000 (4.7%) were called active. Inconclusive results, whose numbers are uncertain, are shown with a selection of clear calls. Rule as the data show it: active = activity change below about -50%; inconclusive = mostly about -30% to -49%; inactive = weaker than that.

Experiment: qHTS for Inhibitors of Inflammasome Signaling: IL-1-beta AlphaLISA Primary Screen
Conditions: THP-1 LPS/ATP IL-1B secretion, 16 h; at 57.5 µM, active compounds read low
In short: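 THP-1 cells pretreated 1 hr with compounds (up to 57.5 uM final), then stimulated with LPS (250 ng/mL final) plus ATP (1.25 mM final); secreted IL-1B measured by AlphaLISA after 16 hr, decreased signal indicating inhibition.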
% is scaled to controls: 0 for no effect and ±100 for the full control effect.

Compound	activity change
CCN(CC)S(=O)(=O)c1ccc(NC(=O)c2cccs2)cc1	active: -52.3%
CCOC(=O)c1ccc(NC(=O)CCn2nnc3ccccc32)cc1	inactive: 3.44%
CN1N=C(C(F)(F)F)CC1=O	inactive: -5.66%
NC(Cc1ccc(C(F)(F)F)cc1)c1csc(Nc2ccc(S(N)(=O)=O)cc2)n1 (configuration not stated)	inconclusive: -34%
O=C(Nc1nccs1)C(Br)C(Br)c1ccccc1 (configuration not stated)	active: -86.3%
O=C(c1n[nH]c(=O)c2ccccc12)N1CCN(C2c3ccccc3-c3ccccc32)CC1	inconclusive: -36.2%
CCCCOC(=O)Nc1ccc(N(C)C)cc1	inconclusive: -32.4%
C/C(=N\Nc1ccccc1Cl)c1ccc(-n2ccnc2)cc1	inconclusive: -49.8%
O=C(NCCN1CCOCC1)c1ccc2c(c1)N(Cc1cccc(Cl)c1)C(=O)c1ccccc1S2(=O)=O	inconclusive: -32.3%
O=C(/C=C/c1cccs1)NCc1ccc2c(c1)OCO2	inactive: 8.81%
O=C1NC[C@@H](c2ccccc2)OC(=O)[C@H](Cc2ccc(F)cc2)C/C=C\C[C@@H]1CC(=O)N(CCO)Cc1ccccc1	inconclusive: -40%
Cc1ccc(N(Cc2cc3ccc(C)cc3[nH]c2=O)C(=O)c2ccco2)cc1	inconclusive: -47.1%
CC(C)NCCCCOc1cccc(Br)c1	inactive: -20.5%
COc1ccccc1/C=C1\SC(=S)N(CCC(=O)N2CCCCC2CCO)C1=O (configuration not stated)	inconclusive: -46.3%
COc1ccccc1C=NNC(=O)c1ccccc1OCCOc1ccccc1	inconclusive: -33.8%
CN(C)c1ccc(C(C(=O)NC2CCCCC2)N(Cc2ccco2)C(=O)c2snc(C(N)=O)c2N)cc1 (configuration not stated)	active: -71.8%
c1ccc(-c2nc(-c3ccco3)n3ccccc23)cc1	active: -92.2%
CCOc1cc(-c2nc3ccccc3s2)ccc1O	inconclusive: -30.1%
Cc1cc(-c2n[nH]c(=S)n2/N=C/C(Br)=C/c2ccccc2)n[nH]1	active: -103%
CCCOc1ccccc1OCC(=O)Nc1cc(Cl)ccc1-n1cncn1	inconclusive: -31%
CCCCC(=O)Nc1ccc(NCc2ccc(C)s2)cc1	inactive: -13.2%
Cc1ccc(/C=C/c2ccc(=O)n(Cc3ccccc3Cl)n2)cc1	inconclusive: -47.2%

Compound	activity change
COc1ccc(CNC(=O)CN(C(=O)c2snc(C(N)=O)c2N)c2ccccc2F)cc1	inconclusive: -34.2%
Cc1cc2c3c(c1)C(C)CC(C)(C)N3C(=O)C2=O (configuration not stated)	inactive: -1.98%
COc1ccc(C(=O)c2cn[nH]c2-c2cc(Cl)ccc2O)cc1	inactive: -11.3%
O=C(Nc1c(C(=O)N2CCOCC2)oc2ccccc12)c1cccc([N+](=O)[O-])c1	inconclusive: -36.8%
COc1ccc(CN(C)C(=O)c2sccc2-c2ccccc2)c(OC)c1	inconclusive: -45.1%
CCOC(=O)c1[nH]cnc1C(=O)Nc1ccc([N+](=O)[O-])cc1	inactive: 8.93%
CCC1CCCCN1C(=O)COC(=O)c1ccc(Br)o1 (configuration not stated)	inactive: 14.6%
CCn1cc(CNCc2cn(C)nc2-c2ccc(C3CCCCC3)cc2)cn1	active: -63.2%
CCc1nc(SCC(=O)c2ccccc2)c2ccccc2n1	inconclusive: -31.5%
CC1Cc2ccccc2C(CCc2ccccc2)=N1 (configuration not stated)	inactive: -0.968%
NC(=O)c1cccnc1Nc1cccc([N+](=O)[O-])c1	inconclusive: -38.7%
CCOc1ccc(C(c2c(NC(=O)c3ccco3)sc(C)c2C)N2CCOCC2)cc1 (configuration not stated)	inconclusive: -38.1%
O=S(=O)(NC1CC1)c1ccc(S(=O)(=O)N2CCCC(c3nc(-c4cccnc4)no3)C2)cc1 (configuration not stated)	inactive: -0.942%
CCCCN(C(=O)/C=C/c1ccco1)c1c(N)n(CC(C)C)c(=O)[nH]c1=O	inconclusive: -38.3%
O=C(O)c1c(-c2ccccc2)c2oc3ccccc3c2[nH]c1=O	inconclusive: -47%
N#CC1=C(N)Oc2c(ccc3cccnc23)C1c1cccnc1 (configuration not stated)	inactive: 61.6%
Cc1nc2c(OCc3ccc(Cl)cc3Cl)cccn2c1N(C)CC1CC1	inconclusive: -45.1%
O=C(Nc1cccc(S(=O)(=O)N2CCCCC2)c1)c1c2c(nc3ccccc13)CCN(Cc1ccccc1)C2	inactive: -1.04%
O=S1(=O)N=C(N(CCO)/N=C/c2ccncc2)c2ccccc21	inconclusive: -46.9%
COC(=O)C1=CN(Cc2ccc(OC)cc2)C=C(C(=O)OC)C1c1cccs1	inactive: -10.5%
CCOc1ccc(C(=O)Nc2ccc(CN3CCOCC3)cc2)cc1Cl	inconclusive: -32.9%
Cc1nc(N2N=C(c3ccc(Cl)cc3)CC2c2ccco2)sc1C(=O)N(C)C (configuration not stated)	inconclusive: -40.9%

Compound	activity change
CCN(CC)c1ccc(C2C3CCCCC3(O)CCN2CC(=O)N2CCCCC2)cc1 (configuration not stated)	inconclusive: -34%
COc1ccc(-n2cc(-c3ccccc3)c3c(N4CCN(CCO)CC4)ncnc32)cc1	inconclusive: -46.6%
COC(=O)Cc1ccc(NC(=S)N2CCN(c3cccc(O)c3)CC2)cc1	inconclusive: -39.8%
Cc1cccc(CNC(=O)c2ccccc2NC(=O)C2=CSCCO2)c1	inconclusive: -45.2%
O=C(Nc1ccc(Nc2ccccc2)cc1)c1cc([N+](=O)[O-])ccc1Cl	active: -67.5%
Cc1ccc(-c2noc(=O)n2CC(=O)c2ccc(Cl)cc2)cc1	inconclusive: -44.5%
Cc1cc(C)cc(C(=O)OCC(=O)Nc2cccc(S(=O)(=O)NC3=NCCCCC3)c2)c1	inconclusive: -30.2%
O=C(c1cc(-c2ccco2)nn1-c1cccc(Cl)c1)N1CCCCC1	inactive: 0%
CCC(=O)N(CCCN(C)C)c1nc(-c2cc(OC)ccc2OC)cs1	inconclusive: -35.7%
Nc1ccc(-c2nc(-c3ccccc3)nc3ccccc23)cc1	inconclusive: -47.8%
COc1ccc(CN2CCC(C(=O)c3ccc(Cl)cc3)CC2)cc1	inactive: -26.9%
COc1ccc2c(c1)Cc1sc(NC(=O)c3cccnc3)nc1-2	inconclusive: -31%
NC(=O)C(NN=C(c1ccccc1)c1ccccc1)c1ccccc1 (configuration not stated)	inactive: -21.4%
Cc1cccc(CN2CCN(C3CN(Cc4ccc(F)cc4)S(=O)(=O)C3)CC2)c1 (configuration not stated)	inactive: -27.4%
CC(=O)c1cccc(NC(=S)NCCCCc2ccccc2)c1	inconclusive: -33.7%
Cc1ccc(CN2CCSc3ccc(C(=O)NC4CCN(Cc5ccccc5)CC4)cc32)cc1	active: -81.8%
CN1CCN(c2nc(C#N)cc(-c3ccccc3)n2)CC1	inconclusive: -40.2%
CCOC(=O)C1C(=O)C=C(c2ccccc2)CC1c1ccccc1 (configuration not stated)	inconclusive: -31.1%
COc1cc(CNc2ccc3[nH]c(=O)[nH]c3c2)ccc1OCc1ccc(F)cc1Cl	inconclusive: -41.3%
O=Cc1cn(-c2ccccc2)nc1-c1ccc2c(c1)OCCO2	inconclusive: -45%
Cc1ccc(S(=O)(=O)N[C@H](C(=O)N2CCC(C(=O)N[C@@H](CC(=O)O)C(=O)O)CC2)C(C)C)cc1	inactive: 2.9%
CC(C)(C)c1ccc(C2CC2C(=O)N/N=C\c2ccc[nH]2)cc1 (configuration not stated)	active: -60.7%

Compound	activity change
O=S(=O)(c1ccc(F)cc1)c1nc(-c2ccco2)oc1Nc1ccc(F)cc1	inconclusive: -48.3%
C=C(C)COc1ccc(-c2[nH]ncc2-c2ccccc2)c(O)c1	inconclusive: -30.4%
COCOCCn1cc(CN2CCS(=O)(=O)N(Cc3ccc(-c4ccc(F)cc4)cc3)C(C(C)C)C2=O)nn1 (configuration not stated)	inconclusive: -47.3%
COc1ccc(OC)c(CNc2ncc(-c3cccc([N+](=O)[O-])c3)n2C)c1	inconclusive: -32.5%
Cc1ccccc1C(=O)N1CCC(C(=O)Nc2ccc(S(=O)(=O)N3C(C)CCCC3C)cc2)CC1 (configuration not stated)	inconclusive: -39.7%
Cc1cc(-c2nn(-c3ccccc3F)cc2CN2CCN(c3ccncc3)CC2)c(C)s1	active: -84.6%
O=c1ccc(-c2ccccc2)nn1Cc1ccc(Cl)cc1	inactive: -27%
COc1ccccc1N1CCN(Cc2cn[nH]c2-c2ccc(F)cc2)CC1	inactive: 9.05%
COc1ccc(NC(=O)c2ccco2)cc1NC(=O)COc1ccccc1[N+](=O)[O-]	inactive: 17.8%
CCOc1ccc(/C=N/NC(=O)c2cc3c(OC)cc(OC)cc3[nH]2)cc1OC	inconclusive: -33.1%
CC1CC(=O)NN=C1c1ccc(NCCO)c([N+](=O)[O-])c1 (configuration not stated)	inactive: 6.85%
COc1ccc(C2=NN(C(=O)c3ccccc3)C(c3ccc(OC)c(OC)c3)C2)cc1OC (configuration not stated)	inconclusive: -31%
C=CCN1C(=O)/C(=C/c2ccc(O)cc2)S/C1=N/c1nccs1	inconclusive: -36.6%
O=C(c1ccc([N+](=O)[O-])cc1)N1CCC(Cc2ccccc2)CC1	active: -76.4%
COc1ccc(NC(=O)C2CCC(CNC(=O)[C@@H]3Cc4ccccc4CN3)CC2)cc1 (some centres not stated)	inconclusive: -42.7%
c1ccc2oc(-c3[nH]ncc3CN(Cc3ccncc3)CC3CCCO3)cc2c1 (configuration not stated)	inactive: -1.31%
O=C(CC1CCCCC1)Nc1nc2ccccc2s1	inconclusive: -39.7%
COc1ccc2nccc(/C=C/c3ccnc4ccc(OC)cc34)c2c1	inconclusive: -32.3%
COc1ccc(S(=O)(=O)N2CCC(C(=O)Nc3ccccc3N3CCCC3)CC2)cc1OC	inconclusive: -45.5%
O=C(O)CCSc1nc2ccccc2n1-c1ccccc1	inconclusive: -45.5%
CC1=C(C(=O)N(C(C)C)C(C)C)CC(CC(=O)NCc2cccc3ccccc23)C(=O)N1Cc1ccccc1 (configuration not stated)	inconclusive: -45.5%
